The record followed here is the supplement of paper PMC10126150.

The test system of this data set is ATP. Description: switch fluorescence ratio, 500 uM ATP over buffer (Cy3 cluster intensity, sum of 5 cycles each) (fold (ratio)); higher = stronger signal-on switching upon ATP binding; sequences stand for … in TCGTCGGCAGCGTCAGATGTGTATAAGAGACAGTTTTTTTTTTTTTTTTTTTTTTTTT…TC. The conditions noted are these: aptamer strand: ATP DNA aptamer (quencher-CACCTGGGGGAGTATTGCGGAGGAAGG + anchor), 100 nM annealed; ATP concentration: 500 uM; one replicate. The method in brief: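 For every switch-domain sequence, the fluorescence ratio is the mean of per-cluster values, each being summed target-cycle Cy3 intensity over summed buffer-cycle Cy3 intensity. Clusters outside 100-1000 RFU were excluded. On a modified Illumina MiSeq flow-cell, the Cy3-labelled switching-strand clusters were annealed to 100 nM quencher-labelled ATP aptamer, imaged in selection buffer and then after 15 min with 500 uM ATP at 22 °C. Five such cycles were run, with NaOH stripping and re-annealing between them.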

Sequences with one replicate were seen in a single cluster, so their values are uncertain.
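Note: ATP exposure 15 min at 22 °C before imaging.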

TGAGTCAGGA: the switch fluorescence ratio is 1.04.
As to AATTGATGCC, the switch fluorescence ratio amounted to 0.951.
For the sequence ACTCGATGT, the switch fluorescence ratio was 1.01.
Next, AACAGGATGG: 0.992.
Next, CACTGTACCT: 1.55; CTGTGGTGGA: 1.03; GCACTGTAGC: 1.13.
Turning to GAAAAAAGTT, the switch fluorescence ratio was 0.944.
Next, CCCGGCAGAG: 1.07; CCATCACAAG: 1.05; CCGCATGAAG: 2.33.
Consider ACTTGATG, for which the switch fluorescence ratio was determined as 1.01.
Regarding TTTCCCTACC, the switch fluorescence ratio stood at 1.07.
CTAGACCGCT: the switch fluorescence ratio came to 1.09.
Next, TACTGGTCGT: 1.03.
For the sequence CGGCACTGGA, the switch fluorescence ratio is 1.06.
In the case of TTCGCTCGGC it was 1; in that of TACGGACAGA, 1.21.
In the case of CCCCAATTTA it was 1.02; in that of CATCCAAGC, 1.21.
On to TGTCGGAATC, for which the switch fluorescence ratio came to 2.31.
Consider CGCCTGTGTT, for which the switch fluorescence ratio was found to be 1.04.
In the case of AGGAGCATCA it was 0.979; in that of TTCAAGATTC, 1; in that of CACGACGGAC, 1.46.
As to ATAGTCTGAG, the switch fluorescence ratio stood at 0.99.
In the case of ACATGAGTGA it was 1.01.
In the case of CGAATAGGAG it was 0.945; in that of AATGAAAGCA, 1.01.
In the case of CCATAACGGA, the switch fluorescence ratio was found to be 0.986.
With GCGACGACGC, the switch fluorescence ratio was 1.63.
Take CAAAGGATAA: the switch fluorescence ratio came out at 1.01.
Next, AGCGGCGAAA: 1.06.
In the case of TGATGTTGTG it was 0.988; in that of TGGCCTATAA, 1.02.
Next, AGGAGGCGT: 0.975; TACCGCTGAG: 1.13.
Regarding AATATAATGA, the switch fluorescence ratio turned out to be 1.
As for AAACACGCA, the switch fluorescence ratio came to 1.15.
Next, CTCACAGCC: 1.17.
For the sequence CAGATATATG, the switch fluorescence ratio came out at 0.995.
Consider TCTACCTAGT, for which the switch fluorescence ratio worked out at 1.05.
As for ATGTTATATC, the switch fluorescence ratio worked out at 1.05.
For TAACGGTCTT, the switch fluorescence ratio worked out at 0.955.
ACGATGCTA: the switch fluorescence ratio came out at 1.56.
Take ACTAGCACTG: the switch fluorescence ratio came out at 1.08.
With CGCGAATAGT, the switch fluorescence ratio was determined as 1.2.
Regarding TGCAGCACGC, the switch fluorescence ratio came out at 1.52.
For ATATTTATGA, the switch fluorescence ratio was 0.974.
In the case of AATATAACCC it was 1.03; in that of TTTGCCCTGC, 0.989.
Consider CCTTGGGAGG, for which the switch fluorescence ratio turned out to be 0.945.
TTGCGTGAGG: the switch fluorescence ratio worked out at 1.1.
Next, AACTCACAAC: 1.18.
Consider GCATTATTA, for which the switch fluorescence ratio amounted to 1.01.
In the case of TCCTGCCGAA it was 1.35; in that of TGGGGCG, 1.15.
CCAAAGGAG: the switch fluorescence ratio worked out at 0.986.
On to ATTCGATTT, for which the switch fluorescence ratio was 1.03.
Regarding AACAAGAGT, the switch fluorescence ratio was found to be 0.997.
Consider GAGTCTGTG, for which the switch fluorescence ratio was determined as 0.981.
Take TGTCTTGCCT: the switch fluorescence ratio stood at 0.972.
As to GTCTGGTCAT, the switch fluorescence ratio was found to be 0.984.
In the case of AATGGAGAGC it was 1; in that of AACTACACAG, 1.13.
As for CGCTGTAGGA, the switch fluorescence ratio is 1.01.
For GATTGGAGAA, the switch fluorescence ratio stood at 0.992.
Next, CTGGTAGCGG: 1.03; GGATAGCTCA: 0.983.
As for CGCCTGAAGC, the switch fluorescence ratio came to 1.01.
In the case of CTGTGTCCAT it was 0.975.
In the case of TTAAGTTCC it was 1.03; in that of ATGCGTGTTG, 0.962.
Take ACACACCGGT: the switch fluorescence ratio worked out at 1.24.
As for GTTTGCCCGT, the switch fluorescence ratio stood at 1.06.
As to AAGGGTACGT, the switch fluorescence ratio came to 1.04.
In the case of GCTGGGCAAA, the switch fluorescence ratio worked out at 0.968.
For AGGCTGCTCG, the switch fluorescence ratio worked out at 0.979.
For ATTATACTTG, the switch fluorescence ratio was determined as 1.02.
